Laboratory results from the supplement of paper PMC3334620.
The full ranking holds about 33,000 sequences; the median of “E-score (-0.5 to 0.5)” is about -0.041, and the highest 2% start at about 0.37. The list shows a part of the results.

Molecular target: T1, Ecm22 (UniProt Q05958)
T1 sequence: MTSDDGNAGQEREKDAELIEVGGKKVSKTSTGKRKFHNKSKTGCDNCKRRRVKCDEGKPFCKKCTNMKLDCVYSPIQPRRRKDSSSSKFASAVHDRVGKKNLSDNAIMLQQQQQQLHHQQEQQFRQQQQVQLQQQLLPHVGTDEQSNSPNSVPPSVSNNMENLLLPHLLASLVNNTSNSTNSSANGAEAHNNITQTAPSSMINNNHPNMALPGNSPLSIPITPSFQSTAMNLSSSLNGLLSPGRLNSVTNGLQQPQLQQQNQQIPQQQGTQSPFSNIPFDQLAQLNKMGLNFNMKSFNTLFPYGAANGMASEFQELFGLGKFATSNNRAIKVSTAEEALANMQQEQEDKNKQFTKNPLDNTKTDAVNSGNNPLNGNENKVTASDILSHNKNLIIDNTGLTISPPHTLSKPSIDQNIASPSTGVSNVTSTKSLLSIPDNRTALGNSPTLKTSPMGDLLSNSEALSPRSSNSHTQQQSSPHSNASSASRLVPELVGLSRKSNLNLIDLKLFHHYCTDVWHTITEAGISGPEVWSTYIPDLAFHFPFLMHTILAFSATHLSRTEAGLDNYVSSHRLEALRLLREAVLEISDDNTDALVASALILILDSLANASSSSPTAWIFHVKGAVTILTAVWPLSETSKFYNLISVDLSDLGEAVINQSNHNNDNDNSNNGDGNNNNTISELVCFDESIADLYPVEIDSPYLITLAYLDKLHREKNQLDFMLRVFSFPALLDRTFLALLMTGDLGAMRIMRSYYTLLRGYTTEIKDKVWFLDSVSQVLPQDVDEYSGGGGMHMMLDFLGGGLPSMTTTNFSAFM
Test: PBM E-score (8-mer binding enrichment) (E-score (-0.5 to 0.5)); higher = stronger / more preferred TF binding; most listed sequences are background and not binding sites
Conditions: protein concentration: 200 nM; construct: GST-full length
Method: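 Universal 'all 10-mer' protein binding microarrays (Agilent AMADID 015681) probed with GST-tagged S. cerevisiae TFs (full-length or DBD) made by in vitro transcription/translation (PURExpress), about 100-200 nM. Bound TF was detected with fluorescent anti-GST. Each ungapped 8-mer (which stands for itself and its reverse complement) is scored by the PBM enrichment score (E-score), a modified Wilcoxon-Mann-Whitney statistic from -0.5 to +0.5, computed with the Universal PBM Analysis Suite. Scale: above 0.35 generally sequence-specific binding.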

Row | Sequence | PBM E-score
1 | AGGAAGTA | -0.1
2 | CTCCCCGC | 0.116
3 | AAAAAGAT | -0.141
4 | CCTAACGA | 0.195
5 | AACATGCG | 0.136
6 | GTTCCGTA | 0.389
7 | ACTAGAAG | -0.242
8 | AGGATGCG | 0.0907
9 | CGCGTTGC | 0.0744
10 | CTTGACCA | -0.318
11 | AGTTTTAC | 0.164
12 | ATGGCACC | -0.0523
13 | CGGGTGCC | -0.052
14 | AGAATTCG | 0.0024
15 | TGTTTGAA | -0.065
16 | GGGGGTCA | -0.176
17 | ACGTGGTG | -0.072
18 | CAAGTTCC | -0.0984
19 | AGATAGAG | -0.0841
20 | GAACCAGA | -0.126
21 | GGCCCCGA | -0.0915
22 | CAGTTGAA | -0.0431
23 | ACGCATCA | 0.0479
24 | ACTGTAAC | 0.04
25 | CGGTCAAG | 0.0356

Row | Sequence | PBM E-score
26 | AAGTAGCG | -0.121
27 | CATTGCGC | -0.0449
28 | GGCACCAC | -0.143
29 | AATTCCCT | -0.164
30 | TAAGTATA | 0.237
31 | ATCACCGA | 0.0324
32 | TCCCCAGA | -0.236
33 | ATAGACCA | 0.0034
34 | GCGAGTAA | 0.114
35 | GTGCACTA | 0.00219
36 | CACTAGTC | -0.301
37 | TCAGAACA | -0.0575
38 | GCTGTCAA | 0.0292
39 | AAGGAAGG | -0.0599
40 | CCCACGGG | -0.185
41 | CGGTAAGA | 0.0089
42 | AAGTGAGT | -0.154
43 | ACCAGTGC | -0.00812
44 | CAAGCTCC | -0.319
45 | AACTGTGC | -0.293
46 | ACGCCCAA | -0.153
47 | CGGCTGGA | -0.076
48 | AGTAATAC | 0.0343
49 | ACCTCTAG | -0.137
50 | AAAGTAAC | -0.0745

Row | Sequence | PBM E-score
51 | GGCGCAAC | 0.0334
52 | AGTGAATA | -0.104
53 | CGACAGTA | 0.0736
54 | AGGCGCCC | -0.244
55 | AACACACC | 0.0383
56 | ATATTGCC | -0.0775
57 | ACAAAGTA | 0.199
58 | AGTACATC | 0.0703
59 | CCCACAAA | -0.0896
60 | CGGAGAAG | -0.219
61 | CTTACGGA | 0.0416
62 | AAATAGTG | -0.00077
63 | AACTCTCA | -0.108
64 | CTCCTGGC | -0.125
65 | AGTAAGAT | -0.075
66 | GACTGGAA | -0.103
67 | CAGTGGGA | -0.171
68 | CATCAAAC | -0.0412
69 | GGGTTGGA | -0.0518
70 | GATCTACA | 0.011
71 | ACAGACCT | 0.0802
72 | ACGGTTGA | 0.0702
73 | AGTACCCG | 0.182
74 | CAAAGGTC | -0.263
75 | AAAATTCA | 0.0927

Row | Sequence | PBM E-score
76 | CCAGTCGA | 0.118
77 | AATCGGAT | 0.255
78 | GGGAACGA | 0.492
79 | AGTCTTCG | 0.0716
80 | CCCTGTCA | -0.00188
81 | CGAACCAG | 0.133
82 | GGTTGTTA | 0.095
83 | AATGCAAT | -0.149
84 | AGGGCAGA | -0.313
85 | ACCCTGGA | -0.0612
86 | TCTACCAA | -0.143
87 | ATCGAGCG | 0.16
88 | CGCCTTTA | -0.0311
89 | CAATTATA | -0.00144
90 | GCTTGTGA | -0.29
91 | CCAGTCTA | -0.106
92 | CGGTAGTA | 0.0518
93 | GCTGCCTA | -0.101
94 | ACGGGTGC | 0.177
95 | AAATCTAC | 0.0781
96 | ACCTGTCA | -0.14
97 | CACCTATG | -0.00606
98 | CTGCTCTA | 0.0645
99 | ATAGATGG | -0.18
100 | GCGTGCTA | -0.195

Row | Sequence | PBM E-score
101 | CATGTTCC | -0.25
102 | ACACCTAG | -0.0969
103 | CGGCACGA | 0.176
104 | ACTTAACG | 0.249
105 | CACGCTGC | -0.0694
106 | CCTTCGAC | -0.239
107 | GATCTCTA | -0.13
108 | CAAGAGGC | -0.309
109 | AGGTCCAC | -0.158
110 | AAAGCGGT | -0.0099
111 | ATGTTCGC | 0.219
112 | CAGTGTTC | -0.0918
113 | AAATCTGT | -0.0108
114 | AAAATAGT | -0.134
115 | AGCCCAAG | -0.249
116 | CCACTGCG | -0.19
117 | ATCTCGTC | 0.158
118 | GAGCGGCC | -0.145
119 | ACAAGCGA | 0.265
120 | CCTGATAC | 0.124
121 | CCCCTCCG | 0.0369
122 | AAGTGTTG | 0.0811
123 | AACCAATA | -0.0892
124 | TACAGTCA | 0.101
125 | AACGAACC | 0.408

Row | Sequence | PBM E-score
126 | TGCCCCCA | -0.258
127 | CCAGTTGC | -0.196
128 | ATCATTAA | 0.118
129 | ACAGCGAA | 0.105
130 | TGAGAGCA | -0.102
131 | ACCGTTCG | 0.229
132 | CGTGGCTA | -0.202
133 | CATCAGCA | -0.15
134 | GATCCATC | 0.118
135 | CATTGGGA | -0.132
136 | AATCAATA | 0.0985
137 | CGCTCTGA | -0.116
138 | ACGAAGAC | 0.302
139 | CCCCGGTC | -0.171
140 | AACAAAGT | 0.089
141 | CCCGATTC | -0.00573
142 | ATAAATCC | 0.0568
143 | ATTTGAAC | 0.0528
144 | ACACTGAC | 0.0202
145 | TACGCCAA | 0.109
146 | AAAGGGCG | -0.0368
147 | CCCGCCAC | -0.0935
148 | CTTCGTCA | 0.117
149 | CGATACAC | 0.141
150 | CGCCGAGA | -0.0335

Row | Sequence | PBM E-score
151 | AATATATG | 0.151
152 | CGTCAGCA | -0.0581
153 | AGTACTCC | -0.0363
154 | ACACGGGC | -0.0743
155 | AACAGTCT | -0.144
156 | AATTTTCT | -0.0351
157 | GATCTAAC | 0.0696
158 | AGAAAAGC | 0.0292
159 | GGCGCACA | -0.322
160 | GACGAGAA | 0.138
161 | TAATATCA | -0.117
162 | CGTAAAGC | 0.348
163 | ATCTTACA | -0.0615
164 | CTCATCCA | -0.213
165 | TTGGGAAA | 0.105
166 | CCCGGTAG | -0.0581
167 | ACCGAGCC | 0.245
168 | CCAATCGG | -0.218
169 | TACTAGGA | -0.176
170 | AGGACACT | -0.364
171 | CCAAGAAG | -0.132
172 | CCGCATAA | 0.119
173 | AAATCTTA | 0.0399
174 | CTTTCGTC | 0.0061
175 | CTGACATA | -0.102

Row | Sequence | PBM E-score
176 | ACTATTCG | 0.151
177 | CGGCACTA | -0.0606
178 | GATTGCAA | 0.00502
179 | ACAGTAGC | 0.0447
180 | AGATGCGC | 0.0221
181 | AGAGGTCC | -0.0819
182 | CTGAGAGC | -0.0232
183 | CGAACTAC | 0.12
184 | ACTATAAC | -0.0993
185 | GCCGACGA | 0.0279
186 | ACGTAGAC | 0.00036
187 | CGATTCGC | 0.221
188 | CGTTAAAA | 0.287
189 | CGGGTAAG | 0.123
190 | ACTATCCC | -0.227
191 | ACCCCCGG | -0.189
192 | GGAACACA | -0.0908
193 | AAGAGCGC | -0.0779
194 | CACTGCCC | -0.159
195 | AGGCGGCG | -0.0664
196 | CGGCCGTC | 0.0171
197 | CATCCGAA | 0.152
198 | AAAGCGGA | -0.0774
199 | GCACCTCC | -0.271
200 | CTTGGAGC | -0.0888

Row | Sequence | PBM E-score
201 | GCCGTATA | 0.463
202 | CATGGAGC | -0.193
203 | AGAGACCG | -0.0917
204 | ATTGTCAC | -0.0911
205 | GCCCAATA | 0.0557
206 | CCTAACCA | -0.0936
207 | GGGTAGCA | -0.0748
208 | TCACCAGA | -0.114
209 | GGTCGTTA | 0.339
210 | CCCCGCTA | 0.119
211 | GTGCCACA | -0.259
212 | ATGTTGCA | 0.0806
213 | AAAGGTCA | -0.144
214 | GGGACGAC | -0.0755
215 | AGCGACGA | 0.195
216 | TACCATAA | -0.0241
217 | TACAATAA | -0.0954
218 | CCGCGAGC | 0.0918
219 | GCGTTACC | 0.0263
